The other results are listed elsewhere or left out.

This assay has as its target T1, OsWOX13 (Oryza sativa, UniProt Q5QMM3 1-267).
T1 sequence: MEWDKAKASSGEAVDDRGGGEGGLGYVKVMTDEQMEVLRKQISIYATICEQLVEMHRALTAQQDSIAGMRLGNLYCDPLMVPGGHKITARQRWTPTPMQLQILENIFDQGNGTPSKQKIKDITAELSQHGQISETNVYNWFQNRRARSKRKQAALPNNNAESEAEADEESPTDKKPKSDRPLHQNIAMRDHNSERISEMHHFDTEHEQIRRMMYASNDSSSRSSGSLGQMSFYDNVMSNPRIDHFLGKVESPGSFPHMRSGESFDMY
As to the kind of experiment: protein-binding microarray (RPBM); PBS, 2% BSA, 51.3 ng/ul salmon testes DNA, 50 uM zinc acetate, 200 nM TF, 25 C, 1 h; high values mean tight binding. Conditions: protein: recombinant; tags: N-terminal polyhistidine and DsRed monomer fusion (pET32a); label: CyDye5-dUTP incorporated in the synthesized complementary strand; 3' TTTTT single-stranded linker to array surface; dsDNA, one strand shown. The gist of the method: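 Binding signal is reported as fluorescence intensity per feature (arbitrary units) from an Axon 4000B scanner. Incubation used 200 nM of each Ni–NTA-purified, N-terminally polyhistidine- and DsRed-fused transcription factor from E. coli BL21-CodonPlus on a double-stranded custom Agilent array for 1 h at 25 °C, with 50 µM zinc acetate in the buffer, followed by washing.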
For the sequence “CAGGCTGCTTAATTACATATATCTAGATATATATATTATTCGGAGTCACCTAGTGCAG”, the binding signal is 3870 fluorescence intensity (a.u.).
For the sequence “TTTATCTAATCATTTTAGTTTAGACTAGTTAATGTTACCTCGGAGTCACCTAGTGCAG”, the binding signal was 7390 fluorescence intensity (a.u.).
As for “CACGTTGACCATAATGATTTAGTACCATATACGATAATACCGGAGTCACCTAGTGCAG”, the binding signal was 3520 fluorescence intensity (a.u.).
Regarding “CTGATTACTATAATCGTACTTACTTCCAGCGATTAGCGTCCGGAGTCACCTAGTGCAG”, the binding signal was 24500 fluorescence intensity (a.u.).
In the case of “CAATAAAACAAATTATAGATTATGCCTGTAAACGGTAAGACGGAGTCACCTAGTGCAG”, the binding signal was 7440 fluorescence intensity (a.u.).
On to “GGATAAATTTCAGTAGACAGCAAATGGGAACATTTTGATACGGAGTCACCTAGTGCAG”, for which the binding signal was 7760 fluorescence intensity (a.u.).
In the case of “GCACTTTTAGATGATCAAATCATTTTCTGGGATATAGAGACGGAGTCACCTAGTGCAG”, the binding signal was 3190 fluorescence intensity (a.u.).
“TAATATTTAATTTATTTATTTGTACTCTTAATAATTGTCACGGAGTCACCTAGTGCAG”: the binding signal was 9150 fluorescence intensity (a.u.).
Regarding “ATGGGAAGACACTTCGTAATTAGCACACTTAAATTTCGAACGGAGTCACCTAGTGCAG”, the binding signal is 4560 fluorescence intensity (a.u.).
With “AATTTTAATTGCCATGCATGGCTATGTATCTCTCAATCATCGGAGTCACCTAGTGCAG”, the binding signal is 10300 fluorescence intensity (a.u.).
For “AGACACATAATTTGCATCTTGCCACACCTTCGGTACAAAACGGAGTCACCTAGTGCAG”, the binding signal was 7200 fluorescence intensity (a.u.).
Regarding “TATAATTAGAGAATGTTTACTGTAGCATCACATAGGTTAACGGAGTCACCTAGTGCAG”, the binding signal is 14500 fluorescence intensity (a.u.).
For the sequence “CTTAATGAACAGTACCAATTGTACCAAAGTAATCTCGATTCGGAGTCACCTAGTGCAG”, the binding signal is 5270 fluorescence intensity (a.u.).
On to “CCAAAATTTAATTCTAATTAGAAACCATTAAGTGTGGCGGCGGAGTCACCTAGTGCAG”, for which the binding signal was 47000 fluorescence intensity (a.u.).
For the sequence “TTTGACAACTAACTAACTAACCATCTCTTCTGTTTTCTCACGGAGTCACCTAGTGCAG”, the binding signal is 5880 fluorescence intensity (a.u.).
As for “CAAAATTAGAAGTTTGACTAAAATTAGAATTTCAGAGAAACGGAGTCACCTAGTGCAG”, the binding signal was 7620 fluorescence intensity (a.u.).
As to “CGTAGCGGTCCTCGAATCAATCAATTTCCTCCCACGGGAACGGAGTCACCTAGTGCAG”, the binding signal is 10000 fluorescence intensity (a.u.).
On to “AGATTGATGACAAGGATCACTGGTACAGGTTGGGAATTGACGGAGTCACCTAGTGCAG”, for which the binding signal is 4990 fluorescence intensity (a.u.).
On to “CAAAATTATGTAAACCCTAGCTGGCTGTCCGTCCTTCCCCCGGAGTCACCTAGTGCAG”, for which the binding signal was 9450 fluorescence intensity (a.u.).
Next, “CTCTAGTTGATGATGGAAATCATTGACAAGAACTATAGCACGGAGTCACCTAGTGCAG”: 22100 fluorescence intensity (a.u.).
Next, “GACGAAAATTAGATTTATTGGAAAATTAAGGGACCTCAGACGGAGTCACCTAGTGCAG”: 14100 fluorescence intensity (a.u.); “AATCTTTGATAGATAGTGCCGTGGAAGGATATTGTAGACACGGAGTCACCTAGTGCAG”: 11200 fluorescence intensity (a.u.); “TATTACATGTCAATTTGACATTGTGTTAATAAATAATAAGCGGAGTCACCTAGTGCAG”: 5060 fluorescence intensity (a.u.).
Consider “ATTGATAATTGGAGGCACCATTGCCTGGCTATGGGCAATTCGGAGTCACCTAGTGCAG”, for which the binding signal was 36900 fluorescence intensity (a.u.).
Turning to “GCTTGATGGTATTAATAGAAGTCTGCATAATGTGTCTTACCGGAGTCACCTAGTGCAG”, the binding signal is 11100 fluorescence intensity (a.u.).
As to “ATTTACTAATGATGGATTAATTATACTTAATAAATTCTTCCGGAGTCACCTAGTGCAG”, the binding signal was 17100 fluorescence intensity (a.u.).
Next, “GTTGTAAACAAAATTATAATGACTATTCAATTATAGGAGCCGGAGTCACCTAGTGCAG”: 8430 fluorescence intensity (a.u.); “AAACTAATTAGTCCGTGATTAGCCATAAGTGCTACAGTAACGGAGTCACCTAGTGCAG”: 43100 fluorescence intensity (a.u.); “ACTTCACAAGACTGTTTGCTAATTGAATAATGCTCCTGAGCGGAGTCACCTAGTGCAG”: 17500 fluorescence intensity (a.u.).
On to “AACATGAGTAATATCAATTATTTGGGTCCAATCCAAACTACGGAGTCACCTAGTGCAG”, for which the binding signal was 3540 fluorescence intensity (a.u.).
As for “TGATCAATTTGATCACGTTTGGTCCGGATTGCTAGTGAAACGGAGTCACCTAGTGCAG”, the figure is 7280 fluorescence intensity (a.u.); as for “TGTAATTACACTGTCGTGATATCAATATTACACCACAGTTCGGAGTCACCTAGTGCAG”, 24600 fluorescence intensity (a.u.); as for “CTGTGAACTGAATGCGATTGATGCGCACGTACCACGTACACGGAGTCACCTAGTGCAG”, 4830 fluorescence intensity (a.u.).
Turning to “GTAATTGTCATTCTCCCTCCACCTTCGTACTTCTCCAGTCCGGAGTCACCTAGTGCAG”, the binding signal was 4530 fluorescence intensity (a.u.).
For the sequence “GCTATTTAATTTAGACTGGGTGGAAAGGGTAGGAGGGTTGCGGAGTCACCTAGTGCAG”, the binding signal was 20200 fluorescence intensity (a.u.).
In the case of “GTTTAGAATCTAATTGACACGTCCACCCAAATTTAGAGACCGGAGTCACCTAGTGCAG”, the binding signal is 17000 fluorescence intensity (a.u.).
Regarding “ATCTAAATTGTTTTAGATTTGTGCACAAGAACAAAAGAGACGGAGTCACCTAGTGCAG”, the binding signal is 16800 fluorescence intensity (a.u.).
For “GCAGCCTAGATTGACAATAGATGAATTGGAGCTAGTAGTGCGGAGTCACCTAGTGCAG”, the binding signal was 35400 fluorescence intensity (a.u.).
Regarding “ACTAATTGGGGCTACAATAAAATCAAGTGGTAGTAAACTTCGGAGTCACCTAGTGCAG”, the binding signal was 17700 fluorescence intensity (a.u.).
Consider “GGTAAACATATAATCAACAAAATTGAATGTACAAGTGGATCGGAGTCACCTAGTGCAG”, for which the binding signal was 23000 fluorescence intensity (a.u.).
For the sequence “TTGCTTTGATTATGTGATGTAGCGAATGCCCGAAAAGGATCGGAGTCACCTAGTGCAG”, the binding signal was 8490 fluorescence intensity (a.u.).
For “GGAATAGGTATAGATGATTGAAGGAGGGTTGTAATTAGTGCGGAGTCACCTAGTGCAG”, the binding signal was 27600 fluorescence intensity (a.u.).
In the case of “CCCAAACGCCCTGAAATCAAATTGAATATTCCAATTTGCACGGAGTCACCTAGTGCAG”, the binding signal was 4630 fluorescence intensity (a.u.).
Take “CAATTAATTCTTTGATCGTTTCTTTCCTCCTAACAACTGTCGGAGTCACCTAGTGCAG”: the binding signal was 3580 fluorescence intensity (a.u.).
For “GATGATGATATGATTCTTTTCCTTTTCCCTGCTGTGCATCCGGAGTCACCTAGTGCAG”, the binding signal was 9110 fluorescence intensity (a.u.).
For the sequence “CTATCTAGATTTGTTGTACTAGATTATATCCCATCGAAGTCGGAGTCACCTAGTGCAG”, the binding signal was 3970 fluorescence intensity (a.u.).
For “TCAAATTGAAATTCGAATTCAAATATTTTATATTTTCCTCCGGAGTCACCTAGTGCAG”, the binding signal is 22400 fluorescence intensity (a.u.).
For the sequence “CATACAATTAACAATAACTGAATTGAAGAGGCATATTCTACGGAGTCACCTAGTGCAG”, the binding signal is 26700 fluorescence intensity (a.u.).
As for “AAATTAGCTAATATTTAATTAATCACGTATTAATGGACCGCGGAGTCACCTAGTGCAG”, the figure is 10300 fluorescence intensity (a.u.); as for “ACATAATTGTTTACGTACTGGCTGCCAATTAAGTTAAGTCCGGAGTCACCTAGTGCAG”, 35400 fluorescence intensity (a.u.); as for “TTTTCTGTCTATTTGGTTAACCGAAGAGACTAACCGAATTCGGAGTCACCTAGTGCAG”, 3440 fluorescence intensity (a.u.).
Consider “GAAGATTTAAATTTTGACTTATAAGCCTAAGTGAAAAGATCGGAGTCACCTAGTGCAG”, for which the binding signal was 10500 fluorescence intensity (a.u.).
In the case of “CCCAATGCTAAATCAAATGATTGCTGACACTGAACAAAATCGGAGTCACCTAGTGCAG”, the binding signal is 11900 fluorescence intensity (a.u.).
On to “AATTAAAATTATAAATCAATAACTTAGTTAGCTAACTATGCGGAGTCACCTAGTGCAG”, for which the binding signal was 26400 fluorescence intensity (a.u.).

The values are drawn from article PMC7819943, “Rice protein-binding microarrays: a tool to detect cis-acting elements near promoter regions in rice”.
